{"source": "the supplement of paper PMC9446081", "note": "Hit rate of the full screen: of about 39,000 compounds, about 220 (0.56%) showed activity. The list shows a part of the results.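 Also: static incubation at 37 °C against the wild-type strain, values averaged over two biological replicates.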"}
{"system": "Escherichia coli K-12 BW25113", "experiment": "relative growth (OD600 normalised to plate interquartile mean) (fraction); higher = less growth inhibition, active = 0.2 or less", "conditions": "50 µM; LB; incubation time: overnight (16-24 h)"}
{"smiles": "CNC(=O)[C@H]1Cc2ccccc2N1C(=O)COC", "relative growth": "inactive: 0.988"}
{"smiles": "Cc1ccc(S(=O)(=O)N(C)C[C@H]2OCCCC[C@@H](C)Oc3ccc(NS(C)(=O)=O)cc3C(=O)N([C@@H](C)CO)C[C@@H]2C)cc1", "relative growth": "inactive: 1.02"}
{"smiles": "C[C@@H]1CCCCO[C@@H](CN(C)Cc2ccc3c(c2)OCO3)[C@@H](C)CN([C@H](C)CO)C(=O)c2cc(NC(=O)NC3CCCCC3)ccc2O1", "relative growth": "inactive: 1.01"}
{"smiles": "C[C@H]1CN([C@@H](C)CO)C(=O)c2cc(NC(=O)Nc3cccc4ccccc34)ccc2O[C@@H]1CN(C)Cc1ccc(C(=O)Nc2ccccc2N)cc1", "relative growth": "inactive: 1.01"}
{"smiles": "C[C@H]1CCCCO[C@H](CN(C)S(=O)(=O)c2cccs2)[C@@H](C)CN([C@@H](C)CO)C(=O)c2cc(NC(=O)NC3CCCCC3)ccc2O1", "relative growth": "inactive: 1.01"}
{"smiles": "C[C@H](CO)N1C[C@H](C)[C@H](CN(C)Cc2ccc(C(F)(F)F)cc2)Oc2c(NC(=O)Nc3ccc(C(F)(F)F)cc3)cccc2C1=O", "relative growth": "inactive: 1.01"}
{"smiles": "COCC#Cc1ccc2c(c1)O[C@@H](CN(C)C(=O)c1ccccc1)[C@@H](C)CN([C@@H](C)CO)S2(=O)=O", "relative growth": "inactive: 0.95"}
{"smiles": "C[C@@H]1CN([C@H](C)CO)C(=O)c2cc(NC(=O)Cn3cnnn3)ccc2O[C@@H]1CN(C)S(C)(=O)=O", "relative growth": "inactive: 1.01"}
{"smiles": "C[C@@H]1CN([C@H](C)CO)C(=O)c2cccc(NS(=O)(=O)c3ccc(F)cc3)c2O[C@@H]1CN(C)Cc1ccc(Oc2ccccc2)cc1", "relative growth": "inactive: 1"}
{"smiles": "COC[C@H](NC(=O)c1cnc(C)s1)C(=O)N[C@@H](COC)C(=O)N[C@@H](Cc1ccccc1)C(=O)[C@@]1(C)CO1", "relative growth": "inactive: 1.02"}
{"smiles": "CC(C)NC(=O)N(C)C[C@@H]1Oc2ccc(NC(=O)c3ccncc3)cc2CC(=O)N([C@@H](C)CO)C[C@@H]1C", "relative growth": "inactive: 0.976"}
{"smiles": "CC(C)CC#Cc1cnc2c(c1)C(=O)N([C@H](C)CO)C[C@@H](C)[C@H](CN(C)C(=O)c1ccc3c(c1)OCO3)O2", "relative growth": "inactive: 1.01"}
{"smiles": "C[C@@H]1CCCCO[C@@H](CN(C)S(=O)(=O)c2cccs2)[C@@H](C)CN([C@H](C)CO)C(=O)c2cc(NC(=O)Cc3ccccc3)ccc2O1", "relative growth": "inactive: 1"}
{"smiles": "Cc1ccc(S(N)(=O)=O)cc1", "relative growth": "inactive: 1.04"}
{"smiles": "C[C@@H]1CCCCO[C@H](CN(C)C(=O)CCC(F)(F)F)[C@H](C)CN([C@@H](C)CO)C(=O)c2cc(NC(=O)Cc3ccccc3)ccc2O1", "relative growth": "inactive: 0.98"}
{"smiles": "C[C@@H]1CN([C@H](C)CO)C(=O)Cc2cc(NC(=O)NC3CCCCC3)ccc2O[C@@H]1CN(C)Cc1ccc(Oc2ccccc2)cc1", "relative growth": "inactive: 1.02"}
